34 variants from the RNAGym collection of RNA variant scans (doi:10.1093/nar/gkz1192) can be followed below.

B1: CPEB3 Ribozyme (parent)
chain: UAACAGGGGGCCACAGCAGAAGCGUUCACGUCGCAGCCCCUGUCAGAUUCUGGUGAAUCUGCGAAUUCUGCUGUAUAUCUC

The source gives no read counts; variants with many changes may rest on few reads.

Variants of B1 are the subject of this data set. Put plainly: self-cleavage, relative activity (ratio to wild type); higher = more cleavage; in vitro, sequencing. A digest of the protocol: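 Relative activity was defined as the cleaved/total read fraction for a variant divided by the same fraction for the unmutated ribozyme. CPEB3 self-cleaving ribozyme libraries were made by rounds of error-prone PCR, barcoded, and transcribed in vitro with T7 RNA polymerase for 5 hours at 37°C, and cleavage ran through transcription plus a 15 min DNase I step before EDTA. Illumina sequencing of template-switched reverse transcripts gave the reads, and DNA sequencing mapped the barcodes. Averages come from three batches, using variants with at least 5 reads.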
For the variant UAACAGGGGGCCACAGCGGAAGCGUUUACGACGCAGCCCCCGUCAGAUUCUGGUGAAUCUCCGAAUUCUGCUGUAUACCUC [A18G C27U U31A U41C G61C U78C], the self-cleavage was determined as 0.07. The result for UAACAGGGGGCCACAGCGGAAGCGUUCACGUCGCAGCCCCUGUCAGAUUCUGGUGUAUCUGCGAAUUCUGCCAUAUGUCUC [A18G A56U U72C G73A A77G] reads 0.47; that for UAACAGGGGGCCACAGCGGAAGCGUUCACGUCGCAGCCCCUGUCAGAUUCUGGUGUAUCAGCGAGUCCCGCUGUAUAUCUC [A18G A56U U60A A65G U67C U69C], 0.19. For UAACAGGGGGCCACAGCGGAAGCGUUCACGUCGCAGCCCCUGUCAGAUUCUGGUGAUUCUGCGAAUUCUGCUGUAUAUCAC [A18G A57U U80A] the value was 0.19. Consider UAACAGGGGGCCACAGCGGAAGCGUUCACGUCGCAGCCCCUGUCAGAUUCUGGUGGAUCUGCGAAUUCUGCUGAAUAUCUC [A18G A56G U74A], for which the self-cleavage was 0.87. For UAACAGGGGGCCACAGCGGAAGCGUUCACGUCGCAGCCCCUGUCAGAUUCUGGUGGAUCUGCGAAUUCUGCUGCAUAUCUC [A18G A56G U74C] the value was 0.89; for UAACAGGGGGCCACAGCGGAAGCGUUCACGUCGCAGCCCCUGUCAGAUUCUGGUGGAUCUGCGAAUUCUGCGGUAUAUGUC [A18G A56G U72G C79G], 0.37; for UAACAGGGGGCCACAGCGGAAGCGUUCACGUAGCGGCCCCUGUCGGAUUCUGGAGAAUCUGCGAAUUCUGCUGCAUAUCUC [A18G C32A A35G A45G U54A U74C], 0.16.

As to UAACAGGGGGCCACAGCGGAAGCGUUCACGUCGCAGCCCCUGUCAGAUUCUGGUGGAUCUGCGAAUUCUGCUGUACUUCUC [A18G A56G U76C A77U], the self-cleavage came out at 0.5. Consider UAACAGGGGGCCACAGCGGAAGCGUUCACGUAGCUGCCCCCGUCAGAUUCUGGUGAAUCUGCGAAUUCUGCUGUAUAUCUC [A18G C32A A35U U41C], for which the self-cleavage stood at 0.07. The result for UAACAGGGGGCCACAGCGGAAGCGUUCACGUCGCAGCCCCUGUCAGAUUCUGGUGAAUCUGCGGAUUCUGCUGUAUAUCCC [A18G A64G U80C] reads 0.6; that for UAACAGGGGGCCACAGCGGAAGCGUUCACGUCGCAGCCCCUGUCAGAUUCUGGUGGAUCUGCGAAUUCUGCUGUAGACCUC [A18G A56G U76G U78C], 0.46; that for UAACAGGGGGCCACAGCGGAAGCGUUCACGUCGCAGCCCCUGUCAGUUUCUGGCGAGUCUGCGAAUUCUGCUGUAUAUCUC [A18G A47U U54C A57G], 0.06. The result for UAACAGGGGGCCACAGCGGAAGCGUUCACGUUGCAGCCCCUGUCGGACUCUGGUGAAUCUGCGAAUUCUGCUGUAUAUCUC [A18G C32U A45G U48C] reads 0.2. For UAACAGGGGGCCACAGCGGAAGCGUUCAUGUCGCAGCCCCUGUCAGAUCCUGGUGAAUCUGCGAAUUCUGCUGUAUAUCUC [A18G C29U U49C] the value was 0.1; for UAACAGGGGGCCACAGCGGAAGCGUUCACGUCGCAGCCCCUGUCAGGUUCUGGUGAAUCUGCGAAUUCUGCUGUAUAUUUC [A18G A47G C79U], 0.33; for UAACAGGGGGCCACAGCGGAAGCGUUUACGUCGCAGCCCCUGUCAGAUUCUGGUGAAUCCGCGAAUUCUGCUGUAUAUCUC [A18G C27U U60C], 0.21. For UAACAGGGGGCCACAGCGGAAGCGUUAACGUCGCAGCCCCUGUCGGAUUCUGGUGAACCUGCGAAUUCUGCUGUAUAUCUC [A18G C27A A45G U58C], the self-cleavage was 0.08.

Consider UAACAGGGGGCCACAGCGGAAGCGUUCACGUCGCAGCCCCUGUCAGGUUCUGGUGGAUCUGCGAAUUCUGCGGUAUAUCUC [A18G A47G A56G U72G], for which the self-cleavage was 0.14. For UAACAGGGGGCCACAGCGGAAGCGUUCACGUCGCAGCCCCUGUCAGGUUCUGGUGAAUCUGCGAAUUCUGCUGUAUACCUC [A18G A47G U78C] the value was 0.36; for UAACAGGGGGCCACAGCGGAAGCGUUCACGUCGCAGCCCCUGUCAGAUUCUGGUGAAUCUGCGGGUUCUGCUGUAUAUCUC [A18G A64G A65G], 0.24. The result for UAACAGGGGGCCACAGCGGAAGCGUUCACGUCGCAGCCCCUGUCAGUUUCUGGUGAGUCUGCGAAUUCAGCUGUAUAUCUC [A18G A47U A57G U69A] reads 0.2.

UAACAGGGGGCCACAGCGGAAGUGUUCACGUCGCAGCCCCUGUCAAAUUCAGGUGAAUCUGCGAAUUCUGCUGUAUAUCUC [A18G C23U G46A U51A]: the self-cleavage was 0.18.

UAACAGGGGGCCACAGCGGAAGCGUUCACGUAGCAGCCCCAGUCAGACUCUGGUGAAUCUGCGAACUCUGCUGUAUAUCUC [A18G C32A U41A U48C U66C]: the self-cleavage was determined as 0.09. The result for UAACAGGGGGCCACAGCGGAAGCGUUCACGUUGCAGCCCCUGUCAGAUUCUGGUGAAUCUGCGAAUUCUGCUGUAUACCUC [A18G C32U U78C] reads 0.15; that for UAACAGGGGGCCACAGCGGAAGCGUUCACGUCGCAGCCCCUGUCAGAUUCUGGUGAGUCUGCGAAUUCUGCUGCAUAUCUC [A18G A57G U74C], 0.86; that for UAACAGGGGGCCACAGCGGAAGCGUUCACGUAGCAGCCCCUGUCAGAUUCUGGUGAAUCUGCGAAUUCUGCUGUGUAUCUC [A18G C32A A75G], 0.09. The result for UAACAGGGGGCCACAGCGGAAGCGUUCACGUCGCAGCCCCUGUCAGAUUCUGGUGAAUCUGCGACUCCUGCUGUAUAUCUC [A18G A65C U67C] reads 0.2; that for UAACAGGGGGCCACAGCGGAAGCGUUUACAUCGCAGCCCCUGUCAGAUUCUGGCGAAUCUGCGAAUUCUGCUGUAUUUCCC [A18G C27U G30A U54C A77U U80C], 0.27; that for UAACAGGGGGCCACAGCGGAAGCGUUCACGUUGCAGCCCCAGUCAGACUCUGGUGAAUCUGCGAAUUCCGCAGUAUAUCUC [A18G C32U U41A U48C U69C U72A], 0.13. The result for UAACAGGGGGCCACAGCGGAAGCGUUCACGUUGCAGCCCCUGUCAGACUCCGGUGAAUCUGCGAACUCUGCAGUAUAUCUC [A18G C32U U48C U51C U66C U72A] reads 0.08; that for UAACAGGGGGCCACAGCGGAAGCGUUCACGUCGCAGCCCCUGUCAGAUUCUGGUGGAUCUGCGAGUUCUGCUGUAUAUCUC [A18G A56G A65G], 0.2. For the variant UAACAGGGGGCCACAGCGGAAGUGUUCACGUCGCGGCCCCUGACAGGUUCUGGUGAAUCUGCGAAUUCUUCUGUAUAUCUC [A18G C23U A35G U43A A47G G70U], the self-cleavage is 0.15. The result for UAACAGGGGGCCACAGCGGAAGCGUUGACGUCGCUGCCCCUGUCAGAUUCUGGUGAAUCUGCGGAUUCUGCUGUAUAUCUC [A18G C27G A35U A64G] reads 0.1.
